# Assay results: publication PMC4336329 (PLoS ONE, 2015)
# In all, about 310,000 compounds went through this assay and about 2,200 (0.71%) showed an effect of 50% or more. The effect is printed as a negative number. The list shows a part of the results.
# Molecular target: human ether-à-go-go-related gene (hERG) potassium channel (human, UniProt Q12809)
# Assay: primary screen, population patch clamp on CHO cells stably expressing hERG
# Sequence of human ether-à-go-go-related gene (hERG) potassium channel (Q12809 whole entry, looked up): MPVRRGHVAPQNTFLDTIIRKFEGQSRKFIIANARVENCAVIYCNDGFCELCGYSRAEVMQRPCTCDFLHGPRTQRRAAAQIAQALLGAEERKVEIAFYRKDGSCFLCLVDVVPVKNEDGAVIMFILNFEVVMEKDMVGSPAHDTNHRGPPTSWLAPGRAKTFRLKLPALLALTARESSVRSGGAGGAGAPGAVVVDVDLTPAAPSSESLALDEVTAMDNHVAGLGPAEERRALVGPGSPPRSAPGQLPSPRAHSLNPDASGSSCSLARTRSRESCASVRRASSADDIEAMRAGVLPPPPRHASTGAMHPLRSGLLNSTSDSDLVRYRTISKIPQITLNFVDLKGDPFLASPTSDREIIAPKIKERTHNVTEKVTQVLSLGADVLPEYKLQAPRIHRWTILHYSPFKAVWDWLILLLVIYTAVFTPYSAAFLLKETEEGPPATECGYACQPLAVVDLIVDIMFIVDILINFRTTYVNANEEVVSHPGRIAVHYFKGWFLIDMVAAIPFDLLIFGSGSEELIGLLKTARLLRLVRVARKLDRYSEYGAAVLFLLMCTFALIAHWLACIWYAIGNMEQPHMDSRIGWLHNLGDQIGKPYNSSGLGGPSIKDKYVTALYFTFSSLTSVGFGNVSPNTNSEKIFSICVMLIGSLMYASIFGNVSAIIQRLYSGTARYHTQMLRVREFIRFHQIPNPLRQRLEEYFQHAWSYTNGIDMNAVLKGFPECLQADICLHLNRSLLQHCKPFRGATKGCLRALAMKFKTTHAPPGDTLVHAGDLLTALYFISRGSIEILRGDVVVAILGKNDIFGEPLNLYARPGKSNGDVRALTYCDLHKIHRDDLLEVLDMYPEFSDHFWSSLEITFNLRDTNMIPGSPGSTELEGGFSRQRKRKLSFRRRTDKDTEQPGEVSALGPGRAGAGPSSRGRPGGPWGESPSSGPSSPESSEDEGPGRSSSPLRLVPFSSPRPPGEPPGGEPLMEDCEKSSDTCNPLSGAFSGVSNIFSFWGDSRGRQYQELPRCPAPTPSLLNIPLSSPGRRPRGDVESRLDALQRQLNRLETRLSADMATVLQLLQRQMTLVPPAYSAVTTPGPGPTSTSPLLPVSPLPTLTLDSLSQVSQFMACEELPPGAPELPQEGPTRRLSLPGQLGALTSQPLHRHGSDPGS
row,SMILES,"hERG current change (%, negative = inhibition) at 1uM"
1,CCCCOc1ccc(C(=O)NCC(=O)NCC(c2ccc(OC)cc2)N2CCCC2)cc1 (centres unmarked),-1.56%
2,CC(=O)c1c(C)[nH]c(C(=O)OCC(=O)c2c(N)n(C)c(=O)n(C)c2=O)c1C,15.1%
3,CCCCC(=O)Nc1ccc(NC(=S)NC(=O)CC(C)C)cc1OC,-1.19%
4,Cc1cc(C)c2c(n1)sc1c(O)cc(=O)[nH]c12,4.46%
5,CC(C)CNC(=O)c1ccc(Cl)c(N)c1,11.3%
6,Cc1cccc(NS(=O)(=O)c2ccc(-c3ccc(=O)[nH]n3)o2)c1,9.65%
7,CCOc1nc(Nc2ccc(OC)cc2)nc(OCC)n1,4.07%
8,COc1cc(C(=O)NC(CCSC)C(=O)OCC(=O)NC(=O)C2CCCCC2)cc(OC)c1OC (centres unmarked),12.7%
9,Cc1cc(=O)oc2c(C)c(OCC(=O)NCc3ccccn3)ccc12,15%
10,CC(C)C(NC(=O)c1c(F)cccc1F)C(=O)N1CCN(S(=O)(=O)/C=C/c2ccccc2)CC1 (centres unmarked),-0.618%
11,O=C(CCC(=O)c1cccs1)Nc1nc2ccccc2s1,12.9%
12,O=P(CCCCCCCCCP(=O)(c1ccccc1)c1ccccc1)(c1ccccc1)c1ccccc1,-8.02%
13,O=C1CCCC(O)=C1Sc1cc(Cl)c(Cl)cc1Cl,10.1%
14,CC(=O)O.NC(N)=N/N=C/c1ccccc1OC(F)F,1.09%
15,O=C(NCc1nnc(SCC(=O)N2CCCc3ccccc32)o1)c1ccccc1F,10.8%
16,COc1cccc(C(=O)Nc2nnc(-c3cccs3)o2)c1,15.9%
17,CCCN1C(=O)/C(=C/c2cc(C)n(C)c2C)SC1=Nc1ccc(OCC)cc1,13.8%
18,Cc1c(Cl)c(C(=O)NNC(=S)Nc2ccc(F)cc2)nn1C,16.3%
19,COc1ccccc1Oc1ccc2c(c1)C(=O)N(CC1CCCO1)C2=O (centres unmarked),10.9%

row,SMILES,"hERG current change (%, negative = inhibition) at 1uM"
1,Cc1ccc(NC(=O)N2CCCN(C(=O)OC(C)(C)C)CC2)cc1Cl,14.5%
2,Cc1nc(SCC(=O)NCC2CCCO2)c2cc(-c3ccccc3)sc2n1 (centres unmarked),2.82%
3,CCCc1cc(=O)n2[nH]c(C(F)(F)F)nc2n1,5.3%
4,Cc1ccc(NC(=S)c2ccc(N(C)C)cc2)cc1,21%
5,CNC(=O)Oc1ccc(-c2cn3cc(Cl)ccc3n2)cc1,1.3%
6,COc1ccc(-n2nc(C(=O)NCC(=O)NC3CCCC(C)C3C)c3ccccc3c2=O)cc1 (centres unmarked),14.3%
7,O=C1CN(C(=O)CSc2nnc(C3CC3)n2-c2ccccc2)c2ccccc2N1,1.46%
8,CC(C(=O)NC1CCCCC1)N1C(=O)C2C3C=CC(C3)C2C1=O (centres unmarked),7.93%
9,COc1cccc(C(=O)Nc2cccc(-c3nnc(-c4ccco4)o3)c2)c1,-1.01%
10,CC(C)(CNC(=O)c1cccc(F)c1)CNC(=O)c1cccc(F)c1,12.4%
11,CCCC(O)(c1ccccc1)C(CN1CCOCC1)c1ccccc1.Cl (centres unmarked),12.1%
12,CCCC(=O)Nc1sc2c(c1C#N)CCCC2,13.5%
13,CCN(CC)S(=O)(=O)N1CCC(C(=O)NCc2ccco2)CC1,7.53%
14,Cc1cc(C)cc(N(CC(=O)NCC2CCCO2)C(=O)CCC(=O)Nc2cc(C)on2)c1 (centres unmarked),13.9%
15,COC(=O)c1cc(OC)c(OC)cc1NC(=O)CCNC(=O)c1ccco1,12.8%
16,Cc1c(Cl)cccc1NC(=O)CNc1cccc(S(=O)(=O)N(C)C)c1,4.67%
17,CC1(C)CC(NC(=O)c2ccccn2)CC(C)(C)N1O.Cl,14.7%
18,Cc1ccc(S(=O)(=O)N(CCC(=O)NCc2ccccc2F)c2ccccc2)cc1,8.11%
19,COc1ccc2c(c1)OC[C@H]1[C@H]2N2C(=O)CN(Cc3ccc(Cl)cc3)C(=O)[C@@]2(C)[C@H]1c1ccccc1,13.6%

row,SMILES,"hERG current change (%, negative = inhibition) at 1uM"
1,COc1ccccc1Nc1nnc(SCC2CCCCO2)s1 (centres unmarked),6.13%
2,O=C(Cn1cc([N+](=O)[O-])cn1)N1CCN(c2ccccc2)CC1,13.8%
3,CCOC(=O)C1CCN(c2c(Nc3cc(C)cc(C)c3)c(=O)c2=O)CC1,-1.37%
4,CCC(C)Sc1cccc(-c2nc3cc(C)ccn3c2NCc2ccccc2)c1.O=C(O)C(F)(F)F (centres unmarked),10.8%
5,Cc1ccc(NCc2ccccc2O)cc1,15.5%
6,CCOC(=O)c1cnc2c(C)cccc2c1Nc1ccc(N2CCOCC2)cc1,10%
7,Cc1c(N=Cc2c(O)n(CCc3ccccc3)c(=O)[nH]c2=O)c(=O)n(-c2ccccc2)n1C,-5.62%
8,CC(=O)c1cccc(N(C(=O)c2ccco2)C(C(=O)NC2CCCC2)c2cccs2)c1 (centres unmarked),8.92%
9,O=C(CN(Cc1ccccc1)C(=O)c1csnn1)NCc1ccccc1,20.2%
10,O=c1cc(N2CCCCC2)c2ccccc2o1,2.5%
11,O=C(CSc1nc(Nc2ccccc2)nc(N2CCOCC2)n1)N1CCCC1,-5.6%
12,Cn1cc(C2=C(c3ccc(Cl)cc3Cl)C(=O)NC2=O)c2ccccc21,38%
13,COc1ccc(C(=O)N/C(=C\c2cc(OC)c(OC)cc2[N+](=O)[O-])C(=O)NCCO)cc1,7.21%
14,CC1CCN(C2=NC(=O)/C(=C/c3cn(-c4ccccc4)nc3-c3cccc(S(=O)(=O)N(C)C)c3)S2)CC1,-2.11%
15,CC1CCCCC1NC(=O)/C(C#N)=C/C=C/c1ccccc1[N+](=O)[O-] (centres unmarked),7.34%
16,CCOC(=O)c1c(N)ssc1=S,-5.03%
17,COC(=O)c1sc(=S)n(-c2ccccc2OC)c1N,0.775%
18,O=C(Nc1ccc(Br)cc1)c1nn(C23CC4CC(CC(C4)C2)C3)cc1Br,9.75%
